In test [1] the target is T1, endogenous IRGM (human (endogenous in THP-1)) (UniProt A1A4Y4).
T1 sequence: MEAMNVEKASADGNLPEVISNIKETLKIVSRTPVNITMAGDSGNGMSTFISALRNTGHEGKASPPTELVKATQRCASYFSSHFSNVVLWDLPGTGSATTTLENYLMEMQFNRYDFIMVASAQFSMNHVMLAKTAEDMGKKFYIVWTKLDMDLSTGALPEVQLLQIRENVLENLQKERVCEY
The test is described as follows: co-IP; endogenous proteins from THP-1 lysates (basal, LPS, LPS + nigericin, S. typhimurium, control or NLRP3 siRNA); NP-40 lysis buffer, Protein G Dynabeads, western blot.

Protein sequences, listed by entry. Tags and fused reporters are not part of them. Lines headed by an entry give the natural chain unless they say otherwise; changes in a name come on top. Chains listed by the source or under a name are the forms on record and can include a tag or linker. Residues count along the entry.
UniProt Q96P20: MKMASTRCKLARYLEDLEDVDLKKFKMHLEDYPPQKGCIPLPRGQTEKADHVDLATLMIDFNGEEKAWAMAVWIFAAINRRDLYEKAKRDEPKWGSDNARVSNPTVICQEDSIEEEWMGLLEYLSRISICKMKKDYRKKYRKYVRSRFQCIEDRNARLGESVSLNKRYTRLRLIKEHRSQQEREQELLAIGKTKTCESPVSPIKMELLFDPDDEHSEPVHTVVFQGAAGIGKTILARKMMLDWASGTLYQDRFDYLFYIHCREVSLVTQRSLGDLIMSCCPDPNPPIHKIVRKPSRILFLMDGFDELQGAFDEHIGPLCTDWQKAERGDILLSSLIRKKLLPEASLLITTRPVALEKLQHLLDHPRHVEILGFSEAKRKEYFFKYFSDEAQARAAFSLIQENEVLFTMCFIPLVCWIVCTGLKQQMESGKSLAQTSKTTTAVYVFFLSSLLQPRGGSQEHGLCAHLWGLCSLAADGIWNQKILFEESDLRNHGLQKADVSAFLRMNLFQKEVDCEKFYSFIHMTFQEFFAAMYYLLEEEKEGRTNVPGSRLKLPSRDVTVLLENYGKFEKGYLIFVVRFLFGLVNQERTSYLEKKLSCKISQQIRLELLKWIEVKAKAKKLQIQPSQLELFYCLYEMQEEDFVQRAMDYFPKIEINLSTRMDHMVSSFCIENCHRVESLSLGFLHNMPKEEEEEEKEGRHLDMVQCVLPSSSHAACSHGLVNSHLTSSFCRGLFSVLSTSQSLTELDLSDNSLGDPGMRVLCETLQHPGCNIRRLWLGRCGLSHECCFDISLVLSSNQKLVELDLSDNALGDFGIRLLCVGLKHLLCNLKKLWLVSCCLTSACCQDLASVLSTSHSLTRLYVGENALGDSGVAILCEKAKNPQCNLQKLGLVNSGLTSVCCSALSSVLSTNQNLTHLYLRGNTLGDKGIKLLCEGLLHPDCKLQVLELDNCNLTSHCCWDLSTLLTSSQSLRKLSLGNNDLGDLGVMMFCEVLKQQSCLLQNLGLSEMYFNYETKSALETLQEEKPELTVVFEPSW
FLAG-tagged PYRIN domain of NLRP3: residues 1-93 of Q96P20
FLAG-NLRP3-NACHT: residues 220-536 of Q96P20
UniProt Q14457: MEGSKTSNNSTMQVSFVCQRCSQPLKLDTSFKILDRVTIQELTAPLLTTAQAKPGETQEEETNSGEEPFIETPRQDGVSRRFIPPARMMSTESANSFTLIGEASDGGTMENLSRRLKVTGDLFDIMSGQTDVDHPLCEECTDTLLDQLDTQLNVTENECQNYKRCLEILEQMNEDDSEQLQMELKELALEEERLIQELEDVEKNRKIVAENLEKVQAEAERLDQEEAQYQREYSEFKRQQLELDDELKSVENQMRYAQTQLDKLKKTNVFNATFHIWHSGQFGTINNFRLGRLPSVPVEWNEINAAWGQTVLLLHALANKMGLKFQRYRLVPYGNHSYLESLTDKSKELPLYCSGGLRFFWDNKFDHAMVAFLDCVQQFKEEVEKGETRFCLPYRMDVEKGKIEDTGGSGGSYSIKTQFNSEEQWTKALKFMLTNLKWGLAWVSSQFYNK
UniProt Q676U5: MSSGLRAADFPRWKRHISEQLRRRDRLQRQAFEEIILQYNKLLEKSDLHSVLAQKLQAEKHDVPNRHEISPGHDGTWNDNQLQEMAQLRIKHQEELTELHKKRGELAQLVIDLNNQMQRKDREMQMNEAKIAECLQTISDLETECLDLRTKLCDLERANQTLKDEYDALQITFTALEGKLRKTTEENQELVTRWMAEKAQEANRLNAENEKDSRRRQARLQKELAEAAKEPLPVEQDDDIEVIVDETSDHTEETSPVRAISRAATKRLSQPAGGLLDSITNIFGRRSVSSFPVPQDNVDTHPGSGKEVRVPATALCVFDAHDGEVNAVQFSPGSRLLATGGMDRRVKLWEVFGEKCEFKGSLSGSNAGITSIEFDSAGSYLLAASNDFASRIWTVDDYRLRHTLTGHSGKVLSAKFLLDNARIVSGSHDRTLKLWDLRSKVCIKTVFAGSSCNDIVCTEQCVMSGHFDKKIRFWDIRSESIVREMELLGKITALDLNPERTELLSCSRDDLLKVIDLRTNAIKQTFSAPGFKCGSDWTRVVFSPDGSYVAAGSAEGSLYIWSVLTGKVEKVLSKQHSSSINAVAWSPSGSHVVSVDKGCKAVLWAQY

For test [2], the target named is T2, IRGM, exogenous, tag not named for the experiment (human) (UniProt A1A4Y4).
T2 sequence: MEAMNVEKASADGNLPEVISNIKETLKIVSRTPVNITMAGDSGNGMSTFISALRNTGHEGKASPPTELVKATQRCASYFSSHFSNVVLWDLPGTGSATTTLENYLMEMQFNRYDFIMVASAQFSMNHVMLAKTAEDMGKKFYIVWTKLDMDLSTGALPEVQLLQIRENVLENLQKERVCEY
The test is described as follows: co-IP; lysates of transfected HEK293T cells (some with co-expressed IRGM or NLRP3, some treated with chloroquine 50 uM, 5 hr); NP-40 lysis buffer, antibody at 4°C, Protein G Dynabeads, washed with ice cold PBS, western blot. On the technique in general: A western blot detects proteins with antibodies after separation by electrophoresis.

Test [3] deals with p62, tag not named for the experiment (UniProt Q13501). The description is as above.
Test [4] concerns the target NLRP3 (NACHT, LRR, and PYD domains containing protein 3), exogenous, no tag named (UniProt Q96P20). The description is as above.
Another test has as its target T3, GST-IRGM (human) (UniProt A1A4Y4).
T3 sequence: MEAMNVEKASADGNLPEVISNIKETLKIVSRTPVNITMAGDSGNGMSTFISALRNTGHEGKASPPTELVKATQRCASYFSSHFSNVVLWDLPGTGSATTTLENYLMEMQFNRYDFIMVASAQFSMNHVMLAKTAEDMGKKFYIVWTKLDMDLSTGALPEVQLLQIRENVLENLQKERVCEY
The test is described as follows: pull-down; GST-IRGM on glutathione beads incubated with in vitro translated [35S]-Myc-NLRP3 in NETN-E buffer (50 mM Tris pH 8.0, 100 mM NaCl, 6 mM EDTA, 6 mM EGTA, 0.5% NP-40, 1 mM DTT), 2 h at 4°C; autoradiography; only the target purified.

The target of the next test is T4, GFP-IRGM (human) (UniProt A1A4Y4).
T4 sequence: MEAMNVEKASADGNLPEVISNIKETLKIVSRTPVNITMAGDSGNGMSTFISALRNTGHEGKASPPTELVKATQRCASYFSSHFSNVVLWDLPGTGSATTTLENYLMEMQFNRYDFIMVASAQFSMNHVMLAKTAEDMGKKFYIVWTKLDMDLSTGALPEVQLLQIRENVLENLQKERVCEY
The test is described as follows: co-IP; lysates of transfected HEK293T cells (some with co-expressed IRGM or NLRP3, some treated with chloroquine 50 uM, 5 hr); NP-40 lysis buffer, antibody at 4°C, Protein G Dynabeads, washed with ice cold PBS, western blot.

Test [5] deals with FLAG-tagged CARD domain of ASC (UniProt Q9ULZ3). The test is described as above.
The target of test [6] is FLAG-tagged PYRIN domain of NLRP3 (UniProt Q96P20). The description is as above.
Test [7] has as its target FLAG-tagged PYRIN domain of ASC (UniProt Q9ULZ3). The test is described as above.
For a further test, the target named is FLAG-NLRP3-NACHT (UniProt Q96P20). The description is as above.
A further test addresses Flag-NLRP3 (UniProt Q96P20). Described as above.
The next test deals with FLAG-p62 (UniProt Q13501). The test is described as above.

These are yes or no findings as the source states them, for the method shown. Binding seen in cells or lysates may run through a third protein. Some results given as binding are weak or reduced against the parent protein; the word gives no strength. For some assays here: Sequences can lack the tags named with a protein.

As to “endogenous ASC (apoptosis-associated speck-like protein containing a CARD) (from UniProt Q9ULZ3 1-195)”, in test [1], the binding result is “binds”.

With “endogenous NLRP3 (from UniProt Q96P20 1-1036)”, the binding entry in [1] was “binds”. “ASC, exogenous, tag not named for the experiment (from UniProt Q9ULZ3 1-195)”: the binding result in test [2] and in test [3] was “binds” each time.

Beclin-1 (from UniProt Q14457 1-450): the binding result in [4] is on record as “binds”. With “[35S]-labeled Myc-NLRP3 (from UniProt Q96P20 1-1036)”, the binding entry with GST-IRGM (human) is “binds”. In the case of ATG16L1 (from UniProt Q676U5 1-607), the binding entry in test [4] is recorded as “binds”. As for “NLRP3 (NACHT, LRR, and PYD domains containing protein 3), exogenous, no tag named (from UniProt Q96P20 1-1036)”, the binding entry with GFP-IRGM (human) is reported as “binds”.

B1: IRGM, exogenous, tag not named for the experiment (protein, UniProt A1A4Y4 1-181)
chain: MEAMNVEKASADGNLPEVISNIKETLKIVSRTPVNITMAGDSGNGMSTFISALRNTGHEGKASPPTELVKATQRCASYFSSHFSNVVLWDLPGTGSATTTLENYLMEMQFNRYDFIMVASAQFSMNHVMLAKTAEDMGKKFYIVWTKLDMDLSTGALPEVQLLQIRENVLENLQKERVCEY
Consider B1, for which the binding result in [5] is listed as “no binding”; in test [6], “binds weakly”; in test [7], “binds”; with FLAG-NLRP3-NACHT, “binds”.

B2: GFP-IRGM (protein, UniProt A1A4Y4 1-181)
chain: MEAMNVEKASADGNLPEVISNIKETLKIVSRTPVNITMAGDSGNGMSTFISALRNTGHEGKASPPTELVKATQRCASYFSSHFSNVVLWDLPGTGSATTTLENYLMEMQFNRYDFIMVASAQFSMNHVMLAKTAEDMGKKFYIVWTKLDMDLSTGALPEVQLLQIRENVLENLQKERVCEY
As to B2, the binding result in the test with Flag-NLRP3 and in the test with FLAG-p62 was “binds” each time.

Source of the values: publication PMC6372082.
